We go through 27 molecules from the supplement of paper PMC10037445.

Over roughly 2,900 compounds, “NF-kB SEAP reporter activity, fold change vs agonist alone” has its median near 0.99; the highest 2% begin near 2.6. This is one part of the list.

Assay [1] has as its system RAW-Dual. The assay can be described thus: NF-kB SEAP reporter activity, fold change vs agonist alone; higher = enhanced NF-kB activity. Particulars: library stock concentration (final ~1000-fold dilution): 10 mM. In short, it runs like this: (§1)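 Reporter activity is given as fold change relative to agonist-alone wells. To measure it, 50 nL of library stock was pin-tooled onto RAW-Dual macrophages (50,000 cells/well, DMEM, 384-well plates), a PRR agonist followed 1 h later, and cells stayed at 37 °C, 5% CO2. Twenty hours on, supernatant was assayed for IRF (QuantiLuc luminescence) and NF-κB (QuantiBlue, 620 nm absorbance), and wells under 70% of agonist-control IncuCyte confluency in both mask sets were marked cytotoxic.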

The test system of assay [2] is RAW-Dual. The assay can be described thus: NF-kB SEAP reporter activity, fold change vs agonist alone; cytotoxicity flag (confluency mask): not cytotoxic; higher = enhanced NF-kB activity. In short, it runs like this:
as §1

The test system of assay [3] is RAW-Dual. The assay can be described thus: NF-kB SEAP reporter activity, fold change vs agonist alone; cytotoxicity flag (confluency mask): cytotoxic (confluency <70% of control); higher = enhanced NF-kB activity. In short, it runs like this:
as §1

Setting [4] is: cytotoxicity flag (confluency mask): not cytotoxic, agonist: Imiquimod (TLR7) […].
The mark [5] stands for this setting: cytotoxicity flag (confluency mask): not cytotoxic, agonist: MPLA (TLR4) […].
The mark [6] stands for this setting: agonist: ODN 1826 (TLR9) 0.5 ug/mL.
Setting [7] is: agonist: Pam2CSK4 (TLR2/6) 0.1 ug/mL.
Where [8] appears, read: agonist: Pam3CSK4 (TLR2/1) 0.1 ug/mL.

Regarding `COc1cc(/C=C/C(=O)N2CCC=CC2=O)cc(OC)c1OC`, the “NF-kB SEAP reporter activity” value in assay [1] (cytotoxicity flag (confluency mask): cytotoxic (confluency <70% of control), agonist: Imiquimod (TLR7) […]) is 0.147; in assay [1] (cytotoxicity flag (confluency mask): cytotoxic (confluency <70% of control), agonist: MPLA (TLR4) […]), 0.272; in assay [1] (setting [4]), 0.213; in assay [1] (setting [5]), 0.229.

Turning to `COc1cc(/C=C/C(=O)N2CCC=CC2=O)cc(OC)c1OC` (library stock concentration (final ~1000-fold dilution): 10 mM), the “NF-kB SEAP reporter activity” value in assay [2] (agonist: LPS (TLR4) 0.1 ug/mL) stood at 0.2; in assay [2] (setting [6]), 0.269; in assay [2] (setting [7]), 0.0785; in assay [2] (setting [8]) it was 0.14; in assay [3] (agonist: LPS (TLR4) 0.1 ug/mL), 0.282; in assay [3] (setting [6]) it was 0.193. In addition, the “NF-kB SEAP reporter activity” value turned out to be 0.0749 in assay [3] (setting [7]) and 0.152 in assay [3] (setting [8]).

`CCc1nc(-c2cccc(C)c2)c(-c2ccnc(NC(=O)c3ccccc3)c2)s1`: the entries for the “NF-kB SEAP reporter activity” value in assay [1] (setting [4]) and in assay [1] (setting [5]) were 0.743 and 1.76, respectively.

As to `CCc1nc(-c2cccc(C)c2)c(-c2ccnc(NC(=O)c3ccccc3)c2)s1` (library stock concentration (final ~1000-fold dilution): 10 mM), the “NF-kB SEAP reporter activity” value in assay [2] (agonist: LPS (TLR4) 0.1 ug/mL) came to 2.52; in assay [2] (setting [6]) it was 0.741; in assay [2] (setting [7]), 0.683; in assay [2] (setting [8]), 0.652.

Take `O=C(CCCCCCC(=O)NO)NO` (library stock concentration (final ~1000-fold dilution): 10 mM): the “NF-kB SEAP reporter activity” value in assay [2] (agonist: LPS (TLR4) 0.1 ug/mL) came to 3.77.

Regarding `O=C(CCCCCCC(=O)NO)NO`, the “NF-kB SEAP reporter activity” value in assay [1] (setting [5]) was 2.57.

As to `FC(F)(F)c1ccc(CNc2ccc(Cc3c[nH]c4ncc(Cl)cc34)cn2)cn1`, the “NF-kB SEAP reporter activity” value stood at 1.05 in assay [1] (setting [4]) and 0.645 in assay [1] (setting [5]).

With `FC(F)(F)c1ccc(CNc2ccc(Cc3c[nH]c4ncc(Cl)cc34)cn2)cn1` (library stock concentration (final ~1000-fold dilution): 10 mM), the “NF-kB SEAP reporter activity” value came to 0.484 in assay [2] (agonist: LPS (TLR4) 0.1 ug/mL), 0.335 in assay [2] (setting [6]), 0.346 in assay [2] (setting [7]) and 0.212 in assay [2] (setting [8]).

`C#CCN(C)Cc1ccccc1.Cl`: the “NF-kB SEAP reporter activity” value in assay [1] (setting [4]) was 1.15; in assay [1] (setting [5]), 0.987.

For `C#CCN(C)Cc1ccccc1.Cl` (library stock concentration (final ~1000-fold dilution): 10 mM), the “NF-kB SEAP reporter activity” value was determined as 0.896 in assay [2] (agonist: LPS (TLR4) 0.1 ug/mL), 0.98 in assay [2] (setting [6]), 0.887 in assay [2] (setting [7]) and 1.16 in assay [2] (setting [8]).

In the case of `Cc1ccnc2c1NC(=O)c1cccnc1N2C1CC1` (library stock concentration (final ~1000-fold dilution): 10 mM), the “NF-kB SEAP reporter activity” value in assay [2] (agonist: LPS (TLR4) 0.1 ug/mL) amounted to 1.29; in assay [2] (setting [6]), 1.1; in assay [2] (setting [7]), 1.02; in assay [2] (setting [8]) it was 1.04.

`Cc1ccnc2c1NC(=O)c1cccnc1N2C1CC1`: the “NF-kB SEAP reporter activity” value in assay [1] (setting [4]) turned out to be 0.896; in assay [1] (setting [5]), 0.88.

As for `Cl.O=S(=O)(c1cccc2c(I)cccc12)N1CCCNCC1`, the entries for the “NF-kB SEAP reporter activity” value in assay [1] (setting [4]) and in assay [1] (setting [5]) were 0.797 and 1.12, respectively.

`Cl.O=S(=O)(c1cccc2c(I)cccc12)N1CCCNCC1` (library stock concentration (final ~1000-fold dilution): 10 mM): the “NF-kB SEAP reporter activity” value in assay [2] (agonist: LPS (TLR4) 0.1 ug/mL) was 0.746; in assay [2] (setting [6]) it was 0.722; in assay [2] (setting [7]), 0.626; in assay [2] (setting [8]) it was 0.568.

For the molecule `Cc1[nH]c(=O)c(C#N)cc1-c1ccncc1` (library stock concentration (final ~1000-fold dilution): 10 mM), the “NF-kB SEAP reporter activity” value in assay [2] (agonist: LPS (TLR4) 0.1 ug/mL) stood at 1.01; in assay [2] (setting [6]), 1.02; in assay [2] (setting [7]), 0.996; in assay [2] (setting [8]), 1.11.

As for `Cc1[nH]c(=O)c(C#N)cc1-c1ccncc1`, the entries for the “NF-kB SEAP reporter activity” value in assay [1] (setting [4]) and in assay [1] (setting [5]) were 0.968 and 1.02, respectively.

Take `CS(=O)(=O)c1ccc(C2=C(c3ccccc3)C(=O)OC2)cc1`: the “NF-kB SEAP reporter activity” value was 1.14 in assay [1] (setting [4]) and 0.957 in assay [1] (setting [5]).

On to `CS(=O)(=O)c1ccc(C2=C(c3ccccc3)C(=O)OC2)cc1` (library stock concentration (final ~1000-fold dilution): 10 mM), for which the “NF-kB SEAP reporter activity” value in assay [2] (agonist: LPS (TLR4) 0.1 ug/mL) turned out to be 1.27; in assay [2] (setting [6]), 1.12; in assay [2] (setting [7]), 1.1; in assay [2] (setting [8]), 1.08.

With `CC(=O)c1cc([N+](=O)[O-])c(Sc2cccc(Cl)c2Cl)s1` (library stock concentration (final ~1000-fold dilution): 10 mM), the “NF-kB SEAP reporter activity” value in assay [2] (agonist: LPS (TLR4) 0.1 ug/mL) came out at 1.05; in assay [2] (setting [6]), 0.893; in assay [2] (setting [7]) it was 0.867; in assay [2] (setting [8]) it was 1.01.

In the case of `CC(=O)c1cc([N+](=O)[O-])c(Sc2cccc(Cl)c2Cl)s1`, the results for the “NF-kB SEAP reporter activity” value in assay [1] (setting [4]) and in assay [1] (setting [5]) were 0.915 and 0.955, respectively.

Take `CNC(C)C(=O)NC(C(=O)N1CCCC1C(=O)NC(C(=O)NCCCCCCNC(=O)C(NC(=O)C1CCCN1C(=O)C(NC(=O)C(C)NC)C1CCCCC1)C(c1ccccc1)c1ccccc1)C(c1ccccc1)c1ccccc1)C1CCCCC1` (configuration not stated) (library stock concentration (final ~1000-fold dilution): 10 mM): the “NF-kB SEAP reporter activity” value was 0.851 in assay [2] (agonist: LPS (TLR4) 0.1 ug/mL), 1.01 in assay [2] (setting [6]), 0.893 in assay [2] (setting [7]) and 0.89 in assay [2] (setting [8]).

Take `CNC(C)C(=O)NC(C(=O)N1CCCC1C(=O)NC(C(=O)NCCCCCCNC(=O)C(NC(=O)C1CCCN1C(=O)C(NC(=O)C(C)NC)C1CCCCC1)C(c1ccccc1)c1ccccc1)C(c1ccccc1)c1ccccc1)C1CCCCC1` (configuration not stated): the entries for the “NF-kB SEAP reporter activity” value in assay [1] (setting [4]) and in assay [1] (setting [5]) were 1.2 and 0.986, respectively.

In the case of `COC(=O)C(CC(C)C)NC(=O)c1ccc(NCC(N)CS)cc1-c1cccc2ccccc12.O=C(O)C(F)(F)F` (configuration not stated) (library stock concentration (final ~1000-fold dilution): 10 mM), the “NF-kB SEAP reporter activity” value is 3.82 in assay [2] (agonist: LPS (TLR4) 0.1 ug/mL), 2.38 in assay [2] (setting [6]), 1.5 in assay [2] (setting [7]) and 2.19 in assay [2] (setting [8]).

Regarding `COC(=O)C(CC(C)C)NC(=O)c1ccc(NCC(N)CS)cc1-c1cccc2ccccc12.O=C(O)C(F)(F)F` (configuration not stated), the “NF-kB SEAP reporter activity” value in assay [1] (setting [4]) came out at 1.25; in assay [1] (setting [5]), 2.31.

As for `Cc1ccc(/C(=C\CN2CCCC2)c2cccc(/C=C/C(=O)O)n2)cc1`, the “NF-kB SEAP reporter activity” value in assay [1] (setting [4]) and in assay [1] (setting [5]) was 1.02 each time.

On to `Cc1ccc(/C(=C\CN2CCCC2)c2cccc(/C=C/C(=O)O)n2)cc1` (library stock concentration (final ~1000-fold dilution): 10 mM), for which the “NF-kB SEAP reporter activity” value was determined as 1.28 in assay [2] (agonist: LPS (TLR4) 0.1 ug/mL), 1.04 in assay [2] (setting [6]), 0.928 in assay [2] (setting [7]) and 0.913 in assay [2] (setting [8]).

With `O=C(OC1OC2COC(=O)c3cc(O)c(O)c(O)c3-c3c(cc(O)c(O)c3O)C(=O)OC(C2O)C1O)c1cc(O)c(O)c(O)c1` (configuration not stated), the “NF-kB SEAP reporter activity” value in assay [1] (setting [4]) was found to be 0.783; in assay [1] (setting [5]), 1.08.
